In the supplement of paper PMC8728848:
The other results are listed elsewhere or left out.

Key:
Assay in all cases: glycan array binding signal (z-score within array); higher = stronger binding
Conditions in all cases: glycan notation: IUPAC condensed, linker removed
[1] = molecular target: Gal(b1-4)GlcNAc(b1-2)Man(a1-6)[GlcNAc(b1-2)Man(a1-3)]Man(b1-4)GlcNAc(b1-4)GlcNAc
Summary of the method: (§1)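 From the Consortium for Functional Glycomics database, 3228 arrays were curated, keeping only those whose protein sequence was available. Binding is given as a within-array Z-score averaged across arrays sharing a protein sequence and across linkers. Negative Z-scores can be read as non-binding.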

[2] = molecular target: Gal(b1-4)GlcNAc(b1-2)Man(a1-6)[Man(a1-3)]Man(b1-4)GlcNAc(b1-4)GlcNAc
Summary of the method: as §1

[3] = molecular target: Gal(b1-4)GlcNAc(b1-2)[Gal(b1-4)GlcNAc(b1-4)]Man(a1-3)[Gal(b1-4)GlcNAc(b1-2)Man(a1-6)]Man(b1-4)GlcNAc(b1-4)GlcNAc
Summary of the method: as §1

[4] = molecular target: Gal(b1-4)GlcNAc(b1-2)[Gal(b1-4)GlcNAc(b1-4)]Man(a1-3)[Gal(b1-4)GlcNAc(b1-2)[Gal(b1-4)GlcNAc(b1-6)]Man(a1-6)]Man(b1-4)GlcNAc(b1-4)GlcNAc
Summary of the method: as §1

[5] = molecular target: Gal(b1-4)GlcNAc(b1-2)[Gal(b1-4)GlcNAc(b1-4)]Man(a1-3)[GlcNAc(b1-4)][Gal(b1-4)GlcNAc(b1-2)Man(a1-6)]Man(b1-4)GlcNAc(b1-4)GlcNAc
Summary of the method: as §1

[6] = molecular target: Gal(b1-4)GlcNAc(b1-2)[Gal(b1-4)GlcNAc(b1-4)]Man(a1-3)[GlcNAc(b1-4)][Gal(b1-4)GlcNAc(b1-2)[Gal(b1-4)GlcNAc(b1-6)]Man(a1-6)]Man(b1-4)GlcNAc(b1-4)GlcNAc
Summary of the method: as §1

[7] = molecular target: Gal(b1-4)GlcNAc(b1-2)[Gal(b1-4)GlcNAc(b1-6)]Man(a1-6)[Gal(b1-4)GlcNAc(b1-2)Man(a1-3)]Man(b1-4)GlcNAc(b1-4)GlcNAc
Summary of the method: as §1

[8] = molecular target: Gal(b1-4)GlcNAc(b1-2)[Gal(b1-4)GlcNAc(b1-6)]Man(a1-6)[Gal(b1-4)GlcNAc(b1-2)Man(a1-3)]Man(b1-4)GlcNAc(b1-4)[Fuc(a1-6)]GlcNAc
Summary of the method: as §1

[9] = molecular target: Gal(b1-4)GlcNAc(b1-2)[Gal(b1-4)GlcNAc(b1-6)]Man(a1-6)[GlcNAc(b1-4)][Gal(b1-4)GlcNAc(b1-2)Man(a1-3)]Man(b1-4)GlcNAc(b1-4)GlcNAc
Summary of the method: as §1

[10] = molecular target: Gal(b1-4)GlcNAc(b1-2)[Gal(b1-4)GlcNAc(b1-6)]Man(a1-6)[GlcNAc(b1-4)][Gal(b1-4)GlcNAc(b1-2)[Gal(b1-4)GlcNAc(b1-4)]Man(a1-3)]Man(b1-4)GlcNAc(b1-4)[Fuc(a1-6)]GlcNAc
Summary of the method: as §1

[11] = molecular target: Gal(b1-4)GlcNAc(b1-3)Gal(b1-3)GalNAc
Summary of the method: as §1

[12] = molecular target: Gal(b1-4)GlcNAc(b1-3)Gal(b1-3)GlcNAc
Summary of the method: as §1

[13] = molecular target: Gal(b1-4)GlcNAc(b1-3)Gal(b1-4)Glc
Summary of the method: as §1

[14] = molecular target: Gal(b1-4)GlcNAc(b1-3)Gal(b1-4)GlcNAc
Summary of the method: as §1

[15] = molecular target: Gal(b1-4)GlcNAc(b1-3)Gal(b1-4)GlcNAc(b1-2)Man(a1-3)[Gal(b1-4)GlcNAc(b1-3)Gal(b1-4)GlcNAc(b1-2)Man(a1-6)]Man(b1-4)GlcNAc(b1-4)GlcNAc
Summary of the method: as §1

[16] = molecular target: Gal(b1-4)GlcNAc(b1-3)Gal(b1-4)GlcNAc(b1-2)Man(a1-3)[Gal(b1-4)GlcNAc(b1-3)Gal(b1-4)GlcNAc(b1-2)Man(a1-6)]Man(b1-4)GlcNAc(b1-4)[Fuc(a1-6)]GlcNAc
Summary of the method: as §1

[17] = molecular target: Gal(b1-4)GlcNAc(b1-3)Gal(b1-4)GlcNAc(b1-2)[Gal(b1-4)GlcNAc(b1-3)Gal(b1-4)GlcNAc(b1-6)]Man(a1-6)[Gal(b1-4)GlcNAc(b1-3)Gal(b1-4)GlcNAc(b1-2)Man(a1-3)]Man(b1-4)GlcNAc(b1-4)GlcNAc
Summary of the method: as §1

[18] = molecular target: Gal(b1-4)GlcNAc(b1-3)Gal(b1-4)GlcNAc(b1-2)[Gal(b1-4)GlcNAc(b1-3)Gal(b1-4)GlcNAc(b1-6)]Man(a1-6)[Gal(b1-4)GlcNAc(b1-3)Gal(b1-4)GlcNAc(b1-2)Man(a1-3)]Man(b1-4)GlcNAc(b1-4)[Fuc(a1-6)]GlcNAc
Summary of the method: as §1

[19] = molecular target: Gal(b1-4)GlcNAc(b1-3)Gal(b1-4)GlcNAc(b1-3)Gal(b1-4)GlcNAc
Summary of the method: as §1

B1: LTL (Lotus tetragonolobus), P19664 (protein)
chain: VSFNYTEFKDDGSLILQGDAKIWTDGRLAMPTDPLVNNPKTTRSAGRALYATPVPIWDSATGNVASFVTSFNFLFVIRELKYTPTDGLVFFLAPVGTEIPSGSTGGFLGIFDGSNGFNQFVAVEFDSYHNIWDPKSLRSSHVGIDVNSIMSLKAVNWNRVSGSLEKATIIYDSQTNILSVVMTSQNGQITTIYGTIDLKTVLPEKVSVGFSATTGNPEREKHDIYSWSFTSTLKEPEEQA
- glycan array binding signal (z-score) [1]: -0.356
- glycan array binding signal (z-score) [2]: -0.242
- glycan array binding signal (z-score) [3]: -0.005
- glycan array binding signal (z-score) [4]: -0.342
- glycan array binding signal (z-score) [5]: -0.278
- glycan array binding signal (z-score) [6]: -0.184
- glycan array binding signal (z-score) [7]: -0.372
- glycan array binding signal (z-score) [8]: -0.3
- glycan array binding signal (z-score) [9]: -0.318
- glycan array binding signal (z-score) [10]: -0.359
- glycan array binding signal (z-score) [11]: 0.215
- glycan array binding signal (z-score) [12]: -0.02
- glycan array binding signal (z-score) [13]: -0.016
- glycan array binding signal (z-score) [14]: -0.31
- glycan array binding signal (z-score) [15]: 1.51
- glycan array binding signal (z-score) [16]: 0.588
- glycan array binding signal (z-score) [17]: -0.094
- glycan array binding signal (z-score) [18]: 0.129
- glycan array binding signal (z-score) [19]: -0.226
